The supplement of paper PMC9151546
Single values are uncertain, as repeats are few or missing.

Key:
[1] = system: CHO-K1; experiment: micronucleus frequency (% of nucleated events); higher = more micronuclei (genotoxic)
[2] = system: CHO-K1; experiment: hypodiploid nuclei frequency (% of nucleated events); higher = more hypodiploid events (aneugenic)
Protocol: (§1)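 Flow-cytometric in vitro micronucleus assay (Litron MicroFlow) in CHO-K1 cells in 96-well plates, 19 concentrations (4.5-200 µM, n=1 per concentration). Without S9, cells were exposed for 24 h and sampled at 48 h. With Aroclor 1254-induced rat liver S9, cells were exposed for 3-4 h and sampled at 27-28 h. Read-outs are %MN and %hypodiploid nuclei relative to nucleated events, and relative survival as the nuclei-to-bead ratio versus the 1% DMSO vehicle control (x100).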

[3] = system: CHO-K1; experiment: relative survival (nuclei to bead ratio vs DMSO control) (% of vehicle control); higher = more surviving cells
Protocol: as §1
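Throughout, for hypodiploid nuclei frequency (% of nucleated events): hypodiploid nuclei gated on a flow cytometer with 488 nm excitation after SYTOX Green staining, cultures at 37 °C, positive controls vinblastine without S9 and cyclophosphamide with S9.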
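Throughout, for micronucleus frequency (% of nucleated events): cells lysed with nuclei stained by SYTOX Green, then micronucleus-gated events counted against nucleated events by flow cytometry with 488 nm excitation.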
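Throughout, for relative survival (nuclei to bead ratio vs DMSO control): Lysed-cell nuclei stained with SYTOX Green and counted against counting beads by flow cytometry at 488 nm excitation, with vinblastine (no S9) and cyclophosphamide (plus S9) as positive controls.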

CCC(C)c1cc([N+](=O)[O-])cc([N+](=O)[O-])c1O (stereo not given) [Dinoseb]
Settings	hypodiploid nuclei frequency, [2] [%]	micronucleus frequency, [1] [%]	relative survival, [3]
concentration: 4.5 (µM), S9 metabolic activation: with S9, exposure time: 3-4 hours	0.14	1.48	102
concentration: 4.5 (µM), S9 metabolic activation: without S9, exposure time: 24 hours	0.68	1.56	112
concentration: 5.63 (µM), S9 metabolic activation: with S9, exposure time: 3-4 hours	0.36	1.72	110
concentration: 5.63 (µM), S9 metabolic activation: without S9, exposure time: 24 hours	0.68	2.12	109
concentration: 7.04 (µM), S9 metabolic activation: with S9, exposure time: 3-4 hours	0.38	1.78	115
concentration: 7.04 (µM), S9 metabolic activation: without S9, exposure time: 24 hours	0.7	1.62	111
concentration: 8.8 (µM), S9 metabolic activation: with S9, exposure time: 3-4 hours	0.32	1.36	108
concentration: 8.8 (µM), S9 metabolic activation: without S9, exposure time: 24 hours	0.7	2.38	101
concentration: 11 (µM), S9 metabolic activation: with S9, exposure time: 3-4 hours	0.3	1.6	115
concentration: 11 (µM), S9 metabolic activation: without S9, exposure time: 24 hours	0.86	1.9	106
concentration: 13.7 (µM), S9 metabolic activation: with S9, exposure time: 3-4 hours	0.2	1.36	111
concentration: 13.7 (µM), S9 metabolic activation: without S9, exposure time: 24 hours	0.96	1.6	102
concentration: 17.2 (µM), S9 metabolic activation: with S9, exposure time: 3-4 hours	0.2	1.26	121
concentration: 17.2 (µM), S9 metabolic activation: without S9, exposure time: 24 hours	0.8	1.84	101
concentration: 21.5 (µM), S9 metabolic activation: with S9, exposure time: 3-4 hours	0.28	1.26	99
concentration: 21.5 (µM), S9 metabolic activation: without S9, exposure time: 24 hours	1.04	2.04	101
concentration: 26.8 (µM), S9 metabolic activation: with S9, exposure time: 3-4 hours	0.28	0.94	85.6
concentration: 26.8 (µM), S9 metabolic activation: without S9, exposure time: 24 hours	1.44	1.78	94.1
concentration: 33.6 (µM), S9 metabolic activation: with S9, exposure time: 3-4 hours	0.18	0.88	97
concentration: 33.6 (µM), S9 metabolic activation: without S9, exposure time: 24 hours	2.38	1.92	81.6
concentration: 41.9 (µM), S9 metabolic activation: with S9, exposure time: 3-4 hours	0.2	0.88	91.7
concentration: 41.9 (µM), S9 metabolic activation: without S9, exposure time: 24 hours	1.76	1.74	53.2
concentration: 52.4 (µM), S9 metabolic activation: with S9, exposure time: 3-4 hours	0.18	1.22	83.5
concentration: 52.4 (µM), S9 metabolic activation: without S9, exposure time: 24 hours	1.54	2.98	55
concentration: 65.5 (µM), S9 metabolic activation: with S9, exposure time: 3-4 hours	0.22	0.96	92
concentration: 65.5 (µM), S9 metabolic activation: without S9, exposure time: 24 hours	1.66	3.16	59
concentration: 81.9 (µM), S9 metabolic activation: with S9, exposure time: 3-4 hours	0.24	1.68	93.3
concentration: 81.9 (µM), S9 metabolic activation: without S9, exposure time: 24 hours	1.26	2.86	53.1
concentration: 102 (µM), S9 metabolic activation: with S9, exposure time: 3-4 hours	0.22	1.52	98.8
concentration: 102 (µM), S9 metabolic activation: without S9, exposure time: 24 hours	1.28	2.96	47.4
concentration: 128 (µM), S9 metabolic activation: with S9, exposure time: 3-4 hours	0.12	1.06	92
concentration: 128 (µM), S9 metabolic activation: without S9, exposure time: 24 hours	–	–	39.7
concentration: 160 (µM), S9 metabolic activation: with S9, exposure time: 3-4 hours	0.24	1.24	92.9
concentration: 160 (µM), S9 metabolic activation: without S9, exposure time: 24 hours	0.9	2.14	46
concentration: 200 (µM), S9 metabolic activation: with S9, exposure time: 3-4 hours	0.2	1.08	72.6
concentration: 200 (µM), S9 metabolic activation: without S9, exposure time: 24 hours	0.63	2.6	41.5

CCN(CC)C(=S)SSC(=S)N(CC)CC [Disulfiram]
Settings	hypodiploid nuclei frequency, [2] [%]	micronucleus frequency, [1] [%]	relative survival, [3]
concentration: 4.48 (µM), S9 metabolic activation: with S9, exposure time: 3-4 hours	0.24	1.2	102
concentration: 4.48 (µM), S9 metabolic activation: without S9, exposure time: 24 hours	–	–	37.48
concentration: 5.6 (µM), S9 metabolic activation: with S9, exposure time: 3-4 hours	0.22	1.42	97.9
concentration: 5.6 (µM), S9 metabolic activation: without S9, exposure time: 24 hours	–	–	39.8
concentration: 7 (µM), S9 metabolic activation: with S9, exposure time: 3-4 hours	0.2	1.16	138
concentration: 7 (µM), S9 metabolic activation: without S9, exposure time: 24 hours	–	–	38.2
concentration: 8.75 (µM), S9 metabolic activation: with S9, exposure time: 3-4 hours	0.2	2.08	106
concentration: 8.75 (µM), S9 metabolic activation: without S9, exposure time: 24 hours	–	–	38.4
concentration: 10.9 (µM), S9 metabolic activation: with S9, exposure time: 3-4 hours	0.32	1.6	88.9
concentration: 10.9 (µM), S9 metabolic activation: without S9, exposure time: 24 hours	–	–	38
concentration: 13.7 (µM), S9 metabolic activation: with S9, exposure time: 3-4 hours	0.26	1.44	103
concentration: 13.7 (µM), S9 metabolic activation: without S9, exposure time: 24 hours	–	–	37.2
concentration: 17.1 (µM), S9 metabolic activation: with S9, exposure time: 3-4 hours	0.18	1.48	106
concentration: 17.1 (µM), S9 metabolic activation: without S9, exposure time: 24 hours	–	–	40.7
concentration: 21.4 (µM), S9 metabolic activation: with S9, exposure time: 3-4 hours	0.5	1.12	116
concentration: 21.4 (µM), S9 metabolic activation: without S9, exposure time: 24 hours	–	–	34.4
concentration: 26.7 (µM), S9 metabolic activation: with S9, exposure time: 3-4 hours	0.28	1.2	124
concentration: 26.7 (µM), S9 metabolic activation: without S9, exposure time: 24 hours	–	–	34.1
concentration: 33.4 (µM), S9 metabolic activation: with S9, exposure time: 3-4 hours	0.1	1.28	131
concentration: 33.4 (µM), S9 metabolic activation: without S9, exposure time: 24 hours	–	–	31.7
concentration: 41.7 (µM), S9 metabolic activation: with S9, exposure time: 3-4 hours	0.24	1.08	105
concentration: 41.7 (µM), S9 metabolic activation: without S9, exposure time: 24 hours	–	–	26.8
concentration: 52.2 (µM), S9 metabolic activation: with S9, exposure time: 3-4 hours	0.38	0.88	89.7
concentration: 52.2 (µM), S9 metabolic activation: without S9, exposure time: 24 hours	–	–	24.3
concentration: 65.2 (µM), S9 metabolic activation: with S9, exposure time: 3-4 hours	0.24	1.26	85.8
concentration: 65.2 (µM), S9 metabolic activation: without S9, exposure time: 24 hours	–	–	23.6
concentration: 81.5 (µM), S9 metabolic activation: with S9, exposure time: 3-4 hours	0.48	1.58	71.4
concentration: 81.5 (µM), S9 metabolic activation: without S9, exposure time: 24 hours	–	–	19.8
concentration: 102 (µM), S9 metabolic activation: with S9, exposure time: 3-4 hours	0.52	3.2	51.7
concentration: 102 (µM), S9 metabolic activation: without S9, exposure time: 24 hours	–	–	11.6
concentration: 127 (µM), S9 metabolic activation: with S9, exposure time: 3-4 hours	0.27	2.87	43.8
concentration: 159 (µM), S9 metabolic activation: with S9, exposure time: 3-4 hours	0.51	5.61	41.1
concentration: 199 (µM), S9 metabolic activation: with S9, exposure time: 3-4 hours	–	–	24.1

CCOc1ccc2c(c1)C(C)=CC(C)(C)N2 [Ethoxyquin]
Settings	hypodiploid nuclei frequency, [2] [%]	micronucleus frequency, [1] [%]	relative survival, [3]
concentration: 4.5 (µM), S9 metabolic activation: with S9, exposure time: 3-4 hours	0.08	1.16	107
concentration: 4.5 (µM), S9 metabolic activation: without S9, exposure time: 24 hours	0.4	1.7	95.3
concentration: 5.63 (µM), S9 metabolic activation: with S9, exposure time: 3-4 hours	0.18	0.84	106
concentration: 5.63 (µM), S9 metabolic activation: without S9, exposure time: 24 hours	0.28	1.26	93.6
concentration: 7.04 (µM), S9 metabolic activation: with S9, exposure time: 3-4 hours	0.26	1.36	110
concentration: 7.04 (µM), S9 metabolic activation: without S9, exposure time: 24 hours	0.48	1.66	90.3
concentration: 8.8 (µM), S9 metabolic activation: with S9, exposure time: 3-4 hours	0.38	0.7	95.7
concentration: 8.8 (µM), S9 metabolic activation: without S9, exposure time: 24 hours	0.58	2.5	98.8
concentration: 11 (µM), S9 metabolic activation: with S9, exposure time: 3-4 hours	0.36	1.24	107
concentration: 11 (µM), S9 metabolic activation: without S9, exposure time: 24 hours	0.42	1.54	84.2
concentration: 13.7 (µM), S9 metabolic activation: with S9, exposure time: 3-4 hours	0.16	0.98	92.7
concentration: 13.7 (µM), S9 metabolic activation: without S9, exposure time: 24 hours	0.48	1.26	74.3
concentration: 17.2 (µM), S9 metabolic activation: with S9, exposure time: 3-4 hours	0.14	1.2	102
concentration: 17.2 (µM), S9 metabolic activation: without S9, exposure time: 24 hours	0.62	3.26	88.1
concentration: 21.5 (µM), S9 metabolic activation: with S9, exposure time: 3-4 hours	0.1	1.5	133
concentration: 21.5 (µM), S9 metabolic activation: without S9, exposure time: 24 hours	0.34	2.26	89.9
concentration: 26.8 (µM), S9 metabolic activation: with S9, exposure time: 3-4 hours	0.18	1.24	110
concentration: 26.8 (µM), S9 metabolic activation: without S9, exposure time: 24 hours	0.5	1.74	70.8
concentration: 33.6 (µM), S9 metabolic activation: with S9, exposure time: 3-4 hours	0.2	1.06	128
concentration: 33.6 (µM), S9 metabolic activation: without S9, exposure time: 24 hours	0.64	2.28	83.5
concentration: 41.9 (µM), S9 metabolic activation: with S9, exposure time: 3-4 hours	0.14	1.16	108
concentration: 41.9 (µM), S9 metabolic activation: without S9, exposure time: 24 hours	0.38	1.96	93.1
concentration: 52.4 (µM), S9 metabolic activation: with S9, exposure time: 3-4 hours	0.16	1.22	97.3
concentration: 52.4 (µM), S9 metabolic activation: without S9, exposure time: 24 hours	0.4	2	82.2
concentration: 65.5 (µM), S9 metabolic activation: with S9, exposure time: 3-4 hours	0.24	1.26	106
concentration: 65.5 (µM), S9 metabolic activation: without S9, exposure time: 24 hours	0.62	3.24	74
concentration: 81.9 (µM), S9 metabolic activation: with S9, exposure time: 3-4 hours	0.12	1.2	89.6
concentration: 81.9 (µM), S9 metabolic activation: without S9, exposure time: 24 hours	0.76	4.22	75.9
concentration: 102 (µM), S9 metabolic activation: with S9, exposure time: 3-4 hours	0.26	2.14	80.5
concentration: 102 (µM), S9 metabolic activation: without S9, exposure time: 24 hours	1.82	8.74	57.3
concentration: 128 (µM), S9 metabolic activation: with S9, exposure time: 3-4 hours	0.24	2.06	63.6
concentration: 128 (µM), S9 metabolic activation: without S9, exposure time: 24 hours	–	–	36.5
concentration: 160 (µM), S9 metabolic activation: with S9, exposure time: 3-4 hours	0.17	3.38	52.8
concentration: 160 (µM), S9 metabolic activation: without S9, exposure time: 24 hours	–	–	25.7
concentration: 200 (µM), S9 metabolic activation: with S9, exposure time: 3-4 hours	0.51	4.03	85.8
concentration: 200 (µM), S9 metabolic activation: without S9, exposure time: 24 hours	–	–	5.19
